# The campaign covered roughly 370,000 compounds. About 150 (0.041%) were called active. Inconclusive results, whose numbers are uncertain, are shown with a selection of clear calls. The call rests on the fitted dose curve; in most records, active means well fitted inhibition curve with a large enough effect; inconclusive means small, poorly fitted or top-dose-only effect; inactive means flat fitted curve, though single readings scatter. No potency is given beside an inconclusive call; the fits are too rough.
# Biological target: Beta-lactamase (Escherichia coli (strain K12)) (UniProt P00811)
# Chain of UniProt P00811 (P00811 whole entry, looked up): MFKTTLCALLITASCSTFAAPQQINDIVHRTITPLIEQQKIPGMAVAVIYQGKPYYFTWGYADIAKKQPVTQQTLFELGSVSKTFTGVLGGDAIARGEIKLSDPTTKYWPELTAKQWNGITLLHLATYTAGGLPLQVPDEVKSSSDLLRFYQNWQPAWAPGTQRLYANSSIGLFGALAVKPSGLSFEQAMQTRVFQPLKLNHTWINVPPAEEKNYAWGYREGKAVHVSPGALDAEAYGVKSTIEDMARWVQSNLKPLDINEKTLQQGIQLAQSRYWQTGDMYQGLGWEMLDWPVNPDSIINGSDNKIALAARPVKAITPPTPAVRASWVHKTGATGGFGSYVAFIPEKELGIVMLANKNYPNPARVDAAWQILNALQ
# Assay: qHTS Inhibitors of AmpC Beta-Lactamase (assay with detergent); further: nearly all actives have a fitted effect of over 25% in size;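 on activity change, negative = inhibition: 0% = no-compound wells and -100% = no-enzyme wells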
# Conditions: AmpC hydrolysis of nitrocefin, absorbance 480 nm, 0.01% Triton; activity change, negative = inhibition: at 114 µM (top of the series)
# Method in brief: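 AmpC (5.3 nM in the dispensed reagent) in 20 mM phosphate pH 7.0 with 0.01% (detergent screen) or 0.0001% Triton X-100 was preincubated with compounds for 15 min at room temperature. Nitrocefin was then added from an 800 uM solution, and hydrolysis was followed at 480 nm.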
# Potency means the concentration at half of the fitted maximal effect; tags describe the fitted curve by direction and shape.
SMILES,"activity change, negative = inhibition",Potency
CN(c1ccccc1)c1nc(N)c(C#N)c(CC#N)c1C#N,inactive: -11.5%,–
COCCN1Cc2cccc(C(=O)Nc3ccc(C)c(C)c3)c2C1=O,–,"inconclusive [inhibitor, full curve, poor fit]"
CCOc1ccccc1NC(=O)C1CCN(S(=O)(=O)c2c(C)nn(C)c2C)CC1,–,"inconclusive [inhibitor, full curve, poor fit]"
CN(C)CCNC(=O)c1ccc(CS(=O)(=O)c2c(Cl)cccc2Cl)o1,–,"inconclusive [inhibitor, full curve, poor fit]"
CC(C(=O)NC(=O)NC1CCCCC1)N1CCN(c2ccccn2)CC1 (configuration not stated),–,"inconclusive [inhibitor, full curve, poor fit]"
CCOC(=O)/C(C#N)=C/c1ccc(OCC(=O)Nc2ccccc2)c(OC)c1,–,"inconclusive [inhibitor, full curve, poor fit]"
CCc1nc(SCC(=O)Nc2cc(C)on2)c2c(=O)n(C)c(=O)n(C)c2n1,–,"inconclusive [inhibitor, full curve]"
CCOc1ccc(C(=O)OCC(=O)N2CCCC2)cc1OCC,–,"inconclusive [inhibitor, partial curve, poor fit]"
Cc1c(NC(=S)NC(NC(=O)C(C)(C)C)C(Cl)(Cl)Cl)c(=O)n(-c2ccccc2)n1C (configuration not stated),–,"inconclusive [inhibitor, partial curve, poor fit]"
CCOc1ccc(CC(=O)NCc2cn3c(C)csc3n2)cc1,–,"inconclusive [inhibitor, full curve, poor fit]"
O=C(CCC(=O)Nc1ccc(Oc2ccccc2)cc1)NCCO,–,"inconclusive [inhibitor, partial curve]"
CCn1c(SCC(=O)Nc2nc(-c3ccccc3)cs2)nnc1-c1ccccc1,–,"inconclusive [inhibitor, single point]"
CCC(=O)Nc1c2c(nc3c1CCC3)CCCC2,–,"inconclusive [inhibitor, partial curve, poor fit]"
Cc1cccc(-c2cc(C(=O)O)c3c(-c4ccc(F)cc4)[nH]nc3n2)c1,inactive: 16%,–
Clc1c(Cl)c(Cl)c2n[nH]nc2c1Cl,inactive: -7.25%,–
Cc1ccsc1C(=O)Nc1ccc(OCc2ccccc2)cc1,–,"inconclusive [inhibitor, partial curve, poor fit]"
N#C/C(=N\Nc1ccc(S(=O)(=O)N2CCc3ccccc32)cc1)C(N)=S,inactive: -11%,–
CCc1nn2c(=O)cc(COc3ccc(/C=C4\C(=N)N5N=C(C)SC5=NC4=O)cc3)nc2s1,–,"inconclusive [inhibitor, single point]"
O=C(COC(=O)c1ccc2[nH]c3c(c2c1)CCCC3)Nc1ccccc1,inactive: 6.95%,–
CCc1nnc(NC(=O)C(NS(=O)(=O)c2ccc3c(c2)OCCO3)C(C)C)s1 (configuration not stated),–,"inconclusive [inhibitor, full curve, poor fit]"
O=S1(=O)N=C(Nc2nc3c(s2)CCCC3)c2ccccc21,–,"inconclusive [inhibitor, partial curve, poor fit]"

SMILES,"activity change, negative = inhibition",Potency
O=C(Nc1cccc(NC(=O)c2ccc(Br)o2)n1)c1ccc(Br)o1,–,"inconclusive [inhibitor, full curve, poor fit]"
CC(NC(=O)C(C(=O)c1cccc([N+](=O)[O-])c1)n1cc(Cl)ccc1=O)c1ccccc1 (configuration not stated),–,"inconclusive [inhibitor, full curve, poor fit]"
CCOC(=O)c1ccc(CN(Cc2ccc(Cl)cc2Cl)S(=O)(=O)c2cccc(Cl)c2)cc1,inactive: 5.41%,–
CC(CNC(=O)COC(=O)c1ccco1)c1ccccc1 (configuration not stated),–,"inconclusive [inhibitor, full curve]"
CCc1nc2ccccc2c(C(=O)OCc2nnc(-c3ccccc3)o2)c1C,–,"inconclusive [inhibitor, full curve, poor fit]"
CCCCC1C(=O)N(c2ccccc2)N(c2ccc(O)cc2)C1=O (configuration not stated),–,"inconclusive [inhibitor, partial curve, poor fit]"
CCN(CC)CCCN1C(=O)C(=O)/C(=C(/O)c2ccc3c(c2)CC(C)O3)C1c1ccncc1 (configuration not stated),inactive: -9.43%,–
Nn1c(SC/C=C/c2ccccc2)nnc1-c1cccnc1,–,"inconclusive [inhibitor, partial curve, poor fit]"
Cc1ccc(CNS(=O)(=O)c2cn(C)cn2)cc1,–,"inconclusive [inhibitor, full curve, poor fit]"
O=S(=O)(NC1CCCCC1NCc1ccco1)c1ccccc1 (configuration not stated),–,"inconclusive [inhibitor, full curve]"
O=C(COC(=O)c1cccs1)NCCc1ccc(F)cc1,–,"inconclusive [inhibitor, full curve, poor fit]"
COc1ccc(C(=O)Cn2c(C)nc([N+](=O)[O-])c2Br)cc1,inactive: 1.79%,–
COc1cc(/C=C2\SC(N)=NC2=O)ccc1OCC(=O)Nc1ccc(C)cc1,–,"inconclusive [inhibitor, single point]"
Cc1nc2cc(C)c(C)cc2s1,inactive: 2.32%,–
Cc1nn(-c2ccccc2)nc1-c1nnc(-c2ccc(C(F)(F)F)cc2)o1,inactive: 1.89%,–
O=C(CN1CCCc2ccccc21)N/N=C/c1ccccc1,inactive: -0.169%,–
COc1cc(OC)c(C(=O)NC2CC(C)(C)NC(C)(C)C2)cc1OC,–,"inconclusive [inhibitor, partial curve, poor fit]"
COCC(C)n1c(=O)sc2ccccc2c1=O (configuration not stated),–,"inconclusive [inhibitor, full curve, poor fit]"
Cc1ccc(-n2nnnc2CNC(=O)c2ccc([N+](=O)[O-])o2)cc1C,–,"inconclusive [inhibitor, full curve, poor fit]"
Cc1ccccc1NC(=O)CSc1nnc(Cc2cccn2C)n1-c1ccc(F)cc1,–,"inconclusive [inhibitor, full curve, poor fit]"
COc1ccc(Nc2nc(NC(C)(C)C)nc(N3CCCC3)n2)c(OC)c1,inactive: -6.99%,–

# Reference: PubChem BioAssay AID485294 (National Center for Advancing Translational Sciences (NCATS), 2010)
